The text below walks through data of patent publication US20110319597A1 (CAPHALON AUSTRALIA, published 2011).

The target of assay [1] is T1, recombinant human TNFα (CytoLab) (human, UniProt P01375 fragment).
T1 construct: coated on the ELISA plate at 1 µg/ml; also called Tumour necrosis factor alpha
Kind of assay: ELISA on coated human TNFα. (In general: ELISA stands for enzyme-linked immunosorbent assay.)

Assay [2] concerns the target recombinant human TNFα (human, UniProt P01375 fragment). Kind of assay: cell-based or functional assay.

B1: TNFα dAb Fc variant D70Q (Fc fusion, name in Kabat numbering)
chain: DIQMTQSPSSLSASVGDRVTITCRASQAIDSYLHWYQQKPGKAPKLLIYSASNLETGVPSRFSGSGSGTQFTLTISSLLPEDFATYYCQQVVWRPFTFGQGTKVEIKRV[human IgG1 Fc with changes left out]
B1: the “A450 (AU)” value in assay [1] came out at 1.12 AU. The Standardized EC50, L929 neutralization assay (5-point) in assay [2] was determined as 3.83 µg/mL.

B2: TNFα dAb Fc variant G57D (Fc fusion, name in Kabat numbering)
chain: DIQMTQSPSSLSASVGDRVTITCRASQAIDSYLHWYQQKPGKAPKLLIYSASNLETDVPSRFSGSGSGTDFTLTISSLLPEDFATYYCQQVVWRPFTFGQGTKVEIKRV[human IgG1 Fc with changes left out]
B2: in assay [1], the “A450 (AU)” value was determined as 0.473 AU. Further, in assay [2], the Standardized EC50, L929 neutralization assay (5-point) amounted to 0.948 µg/mL.

B3: TNFα dAb Fc variant F83G (Fc fusion, name in Kabat numbering)
chain: DIQMTQSPSSLSASVGDRVTITCRASQAIDSYLHWYQQKPGKAPKLLIYSASNLETGVPSRFSGSGSGTDFTLTISSLLPEDGATYYCQQVVWRPFTFGQGTKVEIKRV[human IgG1 Fc with changes left out]
In the case of B3, in assay [1], the “A450 (AU)” value is 1.05 AU. In addition, the Standardized EC50, L929 neutralization assay (5-point) in assay [2] worked out at 6.21 µg/mL.

B4: TNFα dAb Fc variant F83P (Fc fusion, name in Kabat numbering)
chain: DIQMTQSPSSLSASVGDRVTITCRASQAIDSYLHWYQQKPGKAPKLLIYSASNLETGVPSRFSGSGSGTDFTLTISSLLPEDPATYYCQQVVWRPFTFGQGTKVEIKRV[human IgG1 Fc with changes left out]
With B4, the “A450 (AU)” value in assay [1] is 0.453 AU. In assay [2], the Standardized EC50, L929 neutralization assay (5-point) worked out at 16.9 µg/mL.

B5: TNFα dAb Fc variant G57A (Fc fusion, name in Kabat numbering)
chain: DIQMTQSPSSLSASVGDRVTITCRASQAIDSYLHWYQQKPGKAPKLLIYSASNLETAVPSRFSGSGSGTDFTLTISSLLPEDFATYYCQQVVWRPFTFGQGTKVEIKRV[human IgG1 Fc with changes left out]
B5: the “A450 (AU)” value in assay [1] came out at 1.18 AU. Besides, in assay [2], the Standardized EC50, L929 neutralization assay (5-point) was 2.06 µg/mL.

B6: TNFα dAb Fc variant G57L (Fc fusion, name in Kabat numbering)
chain: DIQMTQSPSSLSASVGDRVTITCRASQAIDSYLHWYQQKPGKAPKLLIYSASNLETLVPSRFSGSGSGTDFTLTISSLLPEDFATYYCQQVVWRPFTFGQGTKVEIKRV[human IgG1 Fc with changes left out]
B6: in assay [1], the “A450 (AU)” value is 1.07 AU. Moreover, in assay [2], the Standardized EC50, L929 neutralization assay (5-point) was determined as 2.82 µg/mL.

B7: TNFα dAb Fc variant G57H (Fc fusion, name in Kabat numbering)
chain: DIQMTQSPSSLSASVGDRVTITCRASQAIDSYLHWYQQKPGKAPKLLIYSASNLETHVPSRFSGSGSGTDFTLTISSLLPEDFATYYCQQVVWRPFTFGQGTKVEIKRV[human IgG1 Fc with changes left out]
Take B7: the “A450 (AU)” value in assay [1] was 1.19 AU. Further, the Standardized EC50, L929 neutralization assay (5-point) in assay [2] is 0.795 µg/mL.

B8: TNFα dAb Fc variant F83A (Fc fusion, name in Kabat numbering)
chain: DIQMTQSPSSLSASVGDRVTITCRASQAIDSYLHWYQQKPGKAPKLLIYSASNLETGVPSRFSGSGSGTDFTLTISSLLPEDAATYYCQQVVWRPFTFGQGTKVEIKRV[human IgG1 Fc with changes left out]
For the molecule B8, the “A450 (AU)” value in assay [1] worked out at 1.14 AU. Moreover, the Standardized EC50, L929 neutralization assay (5-point) in assay [2] stood at 0.682 µg/mL.

B9: TNFα dAb Fc variant F83S (Fc fusion, name in Kabat numbering)
chain: DIQMTQSPSSLSASVGDRVTITCRASQAIDSYLHWYQQKPGKAPKLLIYSASNLETGVPSRFSGSGSGTDFTLTISSLLPEDSATYYCQQVVWRPFTFGQGTKVEIKRV[human IgG1 Fc with changes left out]
Take B9: in assay [1], the “A450 (AU)” value worked out at 0.503 AU. Moreover, the Standardized EC50, L929 neutralization assay (5-point) in assay [2] was found to be 0.839 µg/mL.

B10: TNFα dAb Fc variant F62H (Fc fusion, name in Kabat numbering)
chain: DIQMTQSPSSLSASVGDRVTITCRASQAIDSYLHWYQQKPGKAPKLLIYSASNLETGVPSRHSGSGSGTDFTLTISSLLPEDFATYYCQQVVWRPFTFGQGTKVEIKRV[human IgG1 Fc with changes left out]
For the molecule B10, in assay [1], the “A450 (AU)” value is 0.241 AU. For the same molecule, in assay [2], the Standardized EC50, L929 neutralization assay (5-point) is 12.3 µg/mL.

B11: TNFα dAb Fc variant G41P (Fc fusion, name in Kabat numbering)
chain: DIQMTQSPSSLSASVGDRVTITCRASQAIDSYLHWYQQKPPKAPKLLIYSASNLETGVPSRFSGSGSGTDFTLTISSLLPEDFATYYCQQVVWRPFTFGQGTKVEIKRV[human IgG1 Fc with changes left out]
For the molecule B11, the “A450 (AU)” value in assay [1] was 0.966 AU. For the same molecule, the Standardized EC50, L929 neutralization assay (5-point) in assay [2] worked out at 7.33 µg/mL.

B12: TNFα dAb Fc variant G41Y (Fc fusion, name in Kabat numbering)
chain: DIQMTQSPSSLSASVGDRVTITCRASQAIDSYLHWYQQKPYKAPKLLIYSASNLETGVPSRFSGSGSGTDFTLTISSLLPEDFATYYCQQVVWRPFTFGQGTKVEIKRV[human IgG1 Fc with changes left out]
As to B12, the “A450 (AU)” value in assay [1] was found to be 0.929 AU. In addition, the Standardized EC50, L929 neutralization assay (5-point) in assay [2] came to 3.57 µg/mL.

B13: TNFα dAb Fc variant F62Y (Fc fusion, name in Kabat numbering)
chain: DIQMTQSPSSLSASVGDRVTITCRASQAIDSYLHWYQQKPGKAPKLLIYSASNLETGVPSRYSGSGSGTDFTLTISSLLPEDFATYYCQQVVWRPFTFGQGTKVEIKRV[human IgG1 Fc with changes left out]
For B13, in assay [1], the “A450 (AU)” value stood at 0.96 AU. In addition, the Standardized EC50, L929 neutralization assay (5-point) in assay [2] was 0.694 µg/mL.

B14: TNFα dAb Fc variant G41S (Fc fusion, name in Kabat numbering)
chain: DIQMTQSPSSLSASVGDRVTITCRASQAIDSYLHWYQQKPSKAPKLLIYSASNLETGVPSRFSGSGSGTDFTLTISSLLPEDFATYYCQQVVWRPFTFGQGTKVEIKRV[human IgG1 Fc with changes left out]
Regarding B14, in assay [1], the “A450 (AU)” value was found to be 1.06 AU. Besides, the Standardized EC50, L929 neutralization assay (5-point) in assay [2] is 5.34 µg/mL.

B15: TNFα dAb Fc variant F83L (Fc fusion, name in Kabat numbering)
chain: DIQMTQSPSSLSASVGDRVTITCRASQAIDSYLHWYQQKPGKAPKLLIYSASNLETGVPSRFSGSGSGTDFTLTISSLLPEDLATYYCQQVVWRPFTFGQGTKVEIKRV[human IgG1 Fc with changes left out]
Turning to B15, in assay [1], the “A450 (AU)” value was found to be 1 AU. In addition, in assay [2], the Standardized EC50, L929 neutralization assay (5-point) turned out to be 0.636 µg/mL.

B16: TNFα dAb Fc variant D70S (Fc fusion, name in Kabat numbering)
chain: DIQMTQSPSSLSASVGDRVTITCRASQAIDSYLHWYQQKPGKAPKLLIYSASNLETGVPSRFSGSGSGTSFTLTISSLLPEDFATYYCQQVVWRPFTFGQGTKVEIKRV[human IgG1 Fc with changes left out]
For B16, the “A450 (AU)” value in assay [1] came out at 1.02 AU. Further, the Standardized EC50, L929 neutralization assay (5-point) in assay [2] is 1.58 µg/mL.

B17: TNFα dAb Fc variant G41Q (Fc fusion, name in Kabat numbering)
chain: DIQMTQSPSSLSASVGDRVTITCRASQAIDSYLHWYQQKPQKAPKLLIYSASNLETGVPSRFSGSGSGTDFTLTISSLLPEDFATYYCQQVVWRPFTFGQGTKVEIKRV[human IgG1 Fc with changes left out]
As to B17, in assay [1], the “A450 (AU)” value worked out at 1.07 AU. Besides, the Standardized EC50, L929 neutralization assay (5-point) in assay [2] came out at 2.39 µg/mL.

B18: TNFα dAb Fc variant G57K (Fc fusion, name in Kabat numbering)
chain: DIQMTQSPSSLSASVGDRVTITCRASQAIDSYLHWYQQKPGKAPKLLIYSASNLETKVPSRFSGSGSGTDFTLTISSLLPEDFATYYCQQVVWRPFTFGQGTKVEIKRV[human IgG1 Fc with changes left out]
With B18, in assay [1], the “A450 (AU)” value came to 1.19 AU. Further, the Standardized EC50, L929 neutralization assay (5-point) in assay [2] was determined as 1.03 µg/mL.

B19: TNFα dAb Fc variant F83Q (Fc fusion, name in Kabat numbering)
chain: DIQMTQSPSSLSASVGDRVTITCRASQAIDSYLHWYQQKPGKAPKLLIYSASNLETGVPSRFSGSGSGTDFTLTISSLLPEDQATYYCQQVVWRPFTFGQGTKVEIKRV[human IgG1 Fc with changes left out]
For B19, the “A450 (AU)” value in assay [1] amounted to 1.02 AU. For the same molecule, in assay [2], the Standardized EC50, L929 neutralization assay (5-point) amounted to 1.04 µg/mL.

B20: TNFα dAb Fc variant F83Y (Fc fusion, name in Kabat numbering)
chain: DIQMTQSPSSLSASVGDRVTITCRASQAIDSYLHWYQQKPGKAPKLLIYSASNLETGVPSRFSGSGSGTDFTLTISSLLPEDYATYYCQQVVWRPFTFGQGTKVEIKRV[human IgG1 Fc with changes left out]
Turning to B20, the “A450 (AU)” value in assay [1] is 1.29 AU. Besides, the Standardized EC50, L929 neutralization assay (5-point) in assay [2] was determined as 0.493 µg/mL.

B21: TNFα dAb Fc variant G57P (Fc fusion, name in Kabat numbering)
chain: DIQMTQSPSSLSASVGDRVTITCRASQAIDSYLHWYQQKPGKAPKLLIYSASNLETPVPSRFSGSGSGTDFTLTISSLLPEDFATYYCQQVVWRPFTFGQGTKVEIKRV[human IgG1 Fc with changes left out]
With B21, the “A450 (AU)” value in assay [1] is 0.496 AU. The Standardized EC50, L929 neutralization assay (5-point) in assay [2] stood at 6.53 µg/mL.

B22: TNFα dAb Fc variant F83H (Fc fusion, name in Kabat numbering)
chain: DIQMTQSPSSLSASVGDRVTITCRASQAIDSYLHWYQQKPGKAPKLLIYSASNLETGVPSRFSGSGSGTDFTLTISSLLPEDHATYYCQQVVWRPFTFGQGTKVEIKRV[human IgG1 Fc with changes left out]
For B22, in assay [1], the “A450 (AU)” value was determined as 1.02 AU. The Standardized EC50, L929 neutralization assay (5-point) in assay [2] came to 1.33 µg/mL.

B23: TNFα dAb Fc variant F83D (Fc fusion, name in Kabat numbering)
chain: DIQMTQSPSSLSASVGDRVTITCRASQAIDSYLHWYQQKPGKAPKLLIYSASNLETGVPSRFSGSGSGTDFTLTISSLLPEDDATYYCQQVVWRPFTFGQGTKVEIKRV[human IgG1 Fc with changes left out]
For the molecule B23, in assay [1], the “A450 (AU)” value was 1.14 AU. For the same molecule, the Standardized EC50, L929 neutralization assay (5-point) in assay [2] turned out to be 0.947 µg/mL.

B24: TNFα dAb Fc variant G41H (Fc fusion, name in Kabat numbering)
chain: DIQMTQSPSSLSASVGDRVTITCRASQAIDSYLHWYQQKPHKAPKLLIYSASNLETGVPSRFSGSGSGTDFTLTISSLLPEDFATYYCQQVVWRPFTFGQGTKVEIKRV[human IgG1 Fc with changes left out]
Turning to B24, the “A450 (AU)” value in assay [1] amounted to 0.925 AU. Further, the Standardized EC50, L929 neutralization assay (5-point) in assay [2] came out at 2.41 µg/mL.
